In patent US10377743B2, “Inhibitors of RAS and methods of use thereof” (Araxes Pharma LLC, priority 2016, dated 2019):
The name of at least one read-out is uncertain.

Biological target: T1, KRAS G12C 1-169, his-tagged protein, GDP-loaded (Homo sapiens, UniProt P01116, G12C)
T1 construct: KRAS G12C 1-169, his-tagged protein, GDP-loaded
Assay: Biochemical assay: covalent binding (modification %) to KRAS G12C by mass spectrometry
Details: 2 hour incubation period, concentration not stated for compounds above 92
Method: Test compounds were prepared as 10 mM stock solutions in DMSO (Fisher cat# BP-231-100). KRAS G12C 1-169, his-tagged protein, GDP-loaded was diluted to 2 μM or 0.5 μM in buffer (20 mM Hepes, 150 mM NaCl, 1 mM MgCl2). Compounds were tested for activity as follows:
Compounds were diluted to 50× final test concentration in DMSO in 96-well storage plates. Compound stock solutions were vortexed before use and observed carefully for any sign of precipitation. Dilutions were as follow: • For 100 μM final compound concentration, compounds were diluted to 5000 μM (5 μL 10 mM compound stock+5 μL DMSO and mixed well by pipetting. • For 30 μM final compound concentration, compounds were diluted to 1500 μM (3 μL 10 mM compound stock+17 μL DMSO) and mixed well by pipetting. • For 10 μM final compound concentration, compounds were diluted to 500 μM (2 μL 10 mM compound stock+38 μL DMSO) and mixed well by pipetting. 49 μL of the stock protein solution was added to each well of a 96-well PCR plate (Fisher cat#1423027). 1 μl of the diluted 50× compounds were added to appropriate wells in the PCR plate using 12-channel pipettor. Reactions were mixed carefully and thoroughly by pipetting up/down with a 200 μL multi-channel pipettor. The plate was sealed well with aluminum plate seal, and stored in drawer at room temperature for 10 minutes, 30 minutes, 2 hours or 24 hours. 5 μL of 2% formic acid (Fisher cat# A117) in de-ionized H2O was then added to each well followed by mixing with a pipette. The plate was then resealed with aluminum seal and stored on dry ice until analyzed as described below.
The above described assays were analyzed by mass spectrometry according to one of the following two procedures:
The MS instrument is set to positive polarity, 2 GHz resolution, and low mass (1700) mode and allowed to equilibrate for 30 minutes. The instrument is then calibrated, switched to acquisition mode and the appropriate method loaded.
After another 30 minute equilibration time, a blank batch (i.e., buffer) is run to ensure equipment is operating properly. The samples are thawed at 37° C. for 10 minutes, briefly centrifuged, and transfer to the bench top. Wells A1 and H12 are spiked with 1 μL 500 μM internal standard peptide, and the plates centrifuged at 2000×g for 5 minutes. The method is then run and masses of each individual well recorded.
The masses (for which integration data is desired) for each well are pasted into the platemap and exported from the analysis. Masses for the internal standards are exported as well. The data at 50 ppm is extracted for the +19 charge state, and identity of well A1 is assigned using the internal standard spike and integrated. Peak data is exported as a TOF list and the above steps are repeated individually, for the +20, 21, 22, 23, 24, and 25 charge states.
The masses and peak intensities of KRAS G12C protein species were measured using a Dionex RSLCnano system (Thermo Scientific) connected to a Q Exactive Plus mass spectrometer (Thermo Scientific).
[…] of sample was each loaded onto a Aeris™ 3.6 μm WIDEPORE C4 200 Å, LC Column 50×2.1 mm column maintained at 40° C. at a flow rate of 600 μL/min with 20% Solvent A (0.1% formic acid in H2O) and 80% Solvent B (0.1% formic acid in acetonitrile). The liquid chromatography conditions were 20% solvent B for 1 minute, 20% to 60% solvent B for 1.5 minutes, 60% to 90% solvent for 0.5 minute, 90% solvent B for 0.2 minute, 90% to 20% solvent B for 0.2 minute, and then equilibrated for 1.6 minute before the following sample injection. The flow rate was maintained at 600 μL/min throughout the sample analysis.
The mass spectrometer was operated in profile mode at a resolution of 17500, 5 microscans, using 50 msec max injection time and an AGC target of 1×10^6, and a full mass range from 800-1850 m/z was recorded. The HCD trapping gas was optimized for maximum sensitivity for intact proteins. […]

SMILES	Binding %
C=CC(=O)N1CCCC(N2Cc3cncc(Nc4c(C)ccc5[nH]ncc45)c3C2=O)C1 (stereo not drawn) [Compound 181, 2-(1-acryloylpiperidin-3-yl)-7-(5-methyl-1H-indazol-4-ylamino)-2,3-dihydro-1H-pyrrolo[3,4-c]pyridin-1-one]	+ (+ indicates binding activity up to 10%)
C=CC(=O)N1CCC(n2c3ccc(-c4c(C)ccc5[nH]ncc45)cc3c(=O)n2C)CC1 [Compound 178, 1′-(1-acryloylpiperidin-4-yl)-2′,5-dimethyl-1H,1′H-4,5′-biindazol-3′(2′H)-one]	+ (+ indicates binding activity up to 10%)
C=CC(=O)N1CC(N2Cc3cnc(Nc4c(C)ccc5cn[nH]c45)cc3C2=O)C1 [Compound 186, 2-(1-acryloylazetidin-3-yl)-6-(6-methyl-1H-indazol-7-ylamino)-2,3-dihydro-1H-pyrrolo[3,4-c]pyridin-1-one]	+ (+ indicates binding activity up to 10%)
C=CC(=O)N1CC(n2c3cc(-c4cc(O)cc5ccccc45)ccc3c(=O)n2C)C1 [Compound 177, 1-(1-acryloylazetidin-3-yl)-6-(3-hydroxynaphthalen-1-yl)-2-methyl-1H-indazol-3(2H)-one]	+ (+ indicates binding activity up to 10%)
C=CC(=O)N1CC(n2c3cc(-c4c(C)ccc5[nH]ncc45)ccc3c(=O)n2C)C1 [Compound 179, 1′-(1-acryloylazetidin-3-yl)-2′,5-dimethyl-1H,1′H-4,6′-biindazol-3′(2′H)-one]	+ (+ indicates binding activity up to 10%)
C=CC(=O)N1CC(N2Cc3ccc(-c4cc(O)cc5ccccc45)cc3N(CC(N)=O)C2=O)C1 [Compound 117, 2-(3-(1-acryloylazetidin-3-yl)-7-(3-hydroxynaphthalen-1-yl)-2-oxo-3,4-dihydroquinazolin-1(2H)-yl)acetamide]	++ (++ indicates binding activity from 10 to 50%)
C=CC(=O)N1CC(n2[nH]c3ccc(-c4c(C)ccc5[nH]ncc45)cc3c2=O)C1 [Compound 130, 2′-(1-acryloylazetidin-3-yl)-5-methyl-1′,2′-dihydro-1H,3′H-[4,5′-biindazol]-3′-one]	++ (++ indicates binding activity from 10 to 50%)
C=CC(=O)N1CC(N2Cc3ccc(-c4nc(N)nc5ccccc45)cc3C2=O)C1 [Compound 166, 2-(1-acryloylazetidin-3-yl)-6-(2-aminoquinazolin-4-yl)isoindolin-1-one]	+ (+ indicates binding activity up to 10%)
C=CC(=O)N1CC(N2Cc3cnc(Nc4c(C)ccc5[nH]ncc45)cc3C2=O)C1 [Compound 189, 2-(1-acryloylazetidin-3-yl)-6-(5-methyl-1H-indazol-4-ylamino)-2,3-dihydro-1H-pyrrolo[3,4-c]pyridin-1-one]	+ (+ indicates binding activity up to 10%)
C=CC(=O)N1CC(N2Cc3ccc(-c4cccc5ccccc45)cc3C2=O)C1 [Compound 173, 2-(1-acryloylazetidin-3-yl)-6-(naphthalen-1-yl)isoindolin-1-one]	++ (++ indicates binding activity from 10 to 50%)
C=CC(=O)N1CC(N2Cc3c(C(N)=O)cc(-c4c(C)ccc5[nH]nc(N)c45)cc3C2=O)C1 [Compound 164, 2-(1-acryloylazetidin-3-yl)-6-(3-amino-5-methyl-1H-indazol-4-yl)-1-oxoisoindoline-4-carboxamide]	+ (+ indicates binding activity up to 10%)
C=CC(=O)N1CC(N2Cc3cccc(Nc4c(C)ccc5[nH]ncc45)c3C2=O)C1 [Compound 184, 2-(1-acryloylazetidin-3-yl)-7-(5-methyl-1H-indazol-4-ylamino)isoindolin-1-one]	++ (++ indicates binding activity from 10 to 50%)
C=CC(=O)N1CC(N2Cc3c(-c4c(C)ccc5[nH]ncc45)ccc(Cl)c3C2=O)C1 [Compound 165, 2-(1-acryloylazetidin-3-yl)-7-chloro-4-(5-methyl-1H-indazol-4-yl)isoindolin-1-one]	+ (+ indicates binding activity up to 10%)
C=CC(=O)N1CC(N2Cc3ccc(-c4c(C)ccc5[nH]ncc45)cc3N(CC(N)=O)C2=O)C1 [Compound 118, 2-(3-(1-acryloylazetidin-3-yl)-7-(5-methyl-1H-indazol-4-yl)-2-oxo-3,4-dihydroquinazolin-1(2H)-yl)acetamide]	+ (+ indicates binding activity up to 10%)
C=CC(=O)N1CC(N2Cc3cncc(Nc4c(C)ccc5[nH]ncc45)c3C2=O)C1 [Compound 174, 2-(1-acryloylazetidin-3-yl)-7-(5-methyl-1H-indazol-4-ylamino)-2,3-dihydro-1H-pyrrolo[3,4-c]pyridin-1-one]	+++ (+++ indicates binding activity greater than 50%)
C=CC(=O)N1CC(N2Cc3c(F)ccc(Nc4c(C)ccc5[nH]ncc45)c3C2=O)C1 [Compound 192, 2-(1-acryloylazetidin-3-yl)-4-fluoro-7-(5-methyl-1H-indazol-4-ylamino)isoindolin-1-one]	+ (+ indicates binding activity up to 10%)
C=CC(=O)N1CC(N2Cc3nccc(Nc4cc(O)cc5ccccc45)c3C2=O)C1 [Compound 196, 6-(1-acryloylazetidin-3-yl)-4-(3-hydroxynaphthalen-1-ylamino)-6,7-dihydro-5H-pyrrolo[3,4-b]pyridin-5-one]	++ (++ indicates binding activity from 10 to 50%)
C=CC(=O)N1CC(N2Cc3c(F)ccc(Nc4cc(O)cc5ccccc45)c3C2=O)C1 [Compound 193, 2-(1-acryloylazetidin-3-yl)-4-fluoro-7-(3-hydroxynaphthalen-1-ylamino)isoindolin-1-one]	+++ (+++ indicates binding activity greater than 50%)
C=CC(=O)N1CC(N2Cc3cncc(Nc4cc(O)cc5cncnc45)c3C2=O)C1 [Compound 191, 2-(1-acryloylazetidin-3-yl)-7-(6-hydroxyquinazolin-8-ylamino)-2,3-dihydro-1H-pyrrolo[3,4-c]pyridin-1-one]	+ (+ indicates binding activity up to 10%)
C=CC(=O)N1CC(N2Cc3c(-c4cc(O)cc5ccccc45)ccc(C)c3C2=O)C1 [Compound 168, 2-(1-acryloylazetidin-3-yl)-4-(3-hydroxynaphthalen-1-yl)-7-methylisoindolin-1-one]	+ (+ indicates binding activity up to 10%)
C=CC(=O)N1CC(N2Cc3ccc(N4CCCC(N)C4)cc3C2=O)C1 (stereo not drawn) [Compound 95, 2-(1-acryloylazetidin-3-yl)-6-(3-aminopiperidin-1-yl)isoindolin-1-one]	+ (+ indicates binding activity up to 10%)
C=CC(=O)N1CC(n2c3ccc(-c4c(C)ccc5[nH]ncc45)cc3c(=O)n2C)C1 [Compound 93, 1′-(1-acryloylazetidin-3-yl)-2′,5-dimethyl-1′,2′-dihydro-1H,3′H-[4,5′-biindazol]-3′-one]	+ (+ indicates binding activity up to 10%)
C=CC(=O)N1CC(N2Cc3cnc(Nc4cc(O)cc5ccccc45)cc3C2=O)C1 [Compound 185, 2-(1-acryloylazetidin-3-yl)-6-(3-hydroxynaphthalen-1-ylamino)-2,3-dihydro-1H-pyrrolo[3,4-c]pyridin-1-one]	+ (+ indicates binding activity up to 10%)
C=CC(=O)N1CC(N2Cc3ccc(-c4cc(O)cc5ccccc45)cc3NC2=O)C1 [Compound 115, 3-(1-acryloylazetidin-3-yl)-7-(3-hydroxynaphthalen-1-yl)-3,4-dihydroquinazolin-2(1H)-one]	+ (+ indicates binding activity up to 10%)
